# Laboratory results taken from paper PMC12661054, “The CIP2A-TOPBP1 axis facilitates mitotic DNA repair via MiDAS and MMEJ” (Nature Communications, 2025).
# How the values were obtained:
# [1] = test system: RPE1 p53-/- FRT/TR cells; assay: Micronuclei formation, RPE1 p53-/- FRT/TR cells; type: cell-based, human; settings: 5 µM ART558, 18 h, with 400 nM aphidicolin; SLX4 T1260A Cl.1 and Cl.2; three independent experiments
# Description: For detection of EdU incorporation in mitosis and the analysis of recruitment of TOPBP1, CIP2A, MUS81, ERCC1, TOPBP1-mAID-Clover, eGFP tagged SLX4 and eGFP tagged Polθ in RPE1 p53^-/- FRT/TR and DLD1 BRCA2^-/-cells, respectively, cells were grown on 13 mm 1.5 thickness coverslips and treated as described. Subsequently cells were simultaneously fixed and permeabilised in PTEMF buffer (20 mM PIPES pH 6.8, 10 mM EGTA, 0.2% Triton X-100, 1 mM MgCl2 and 4% formaldehyde) for 10 minutes at room temperature. For detection of micronuclei, cells were fixed in 250 mM HEPES pH 7.5, 0.1% Triton X-100, 4% PFA in PBS for 20 minutes at 4 °C.
# Coverslips were then incubated for 5 min in 1x PBS with three buffer changes followed by incubation with 0.5% Triton X-100/ PBS for 10 min at room temperature. Coverslips were then incubated for 5 minutes in 1x PBS with three buffer changes. […]
# (§1) Quantification was carried out using FIJI (ImageJ, RRID:SCR_003070) software, CellProfiler (Broad Institute), Harmony (Revvity) or using Aivia (Leica Microsystems). Images of mitotic cells were analysed in 3D with maximum Z projections used for representative images in the manuscript to assist with visualisation.For interphase cells 2D images were analysed.
# [2] = test system: RPE1 p53-/- FRT/TR SLX4 T1260A cells; assay: γH2AX and 53BP1 foci, RPE1 p53-/- FRT/TR SLX4 T1260A cells; type: cell-based, human; settings: Polθ inhibition in SLX4 Thr1260Ala mutant cells
# Description: Alternatively, for the detection of colocalisation of γH2AX, MUS81/SLX4/CIP2A, FANCD2/ CIP2A, detection of recruitment of γH2AX, 53BP1, MDC1, SLX4, in interphase and mitosis in either DLD1, RPE1 p53^-/- FRT/TR, RPE1 p53^-/- PAC^-/- WT or BRCA1^-/- or the detection of recruitment of SLX4 or MUS81 in RPE1 p53^-/- PAC^-/- BRCA1^-/- the following procedure was used. Cells were fixed in 2% BSA/PBS for 15 min at room temperature, followed by 3 × 5 min washes in 1xPBS. Coverslips were then incubated in 0.5% Triton-X/PBS for 10 min at room temperature, followed by a further 3 × 5 min 1xPBS washes. Coverslips were then incubated in blocking buffer (2% BSA, 0.05% Tween-20) for 1 h at room temperature, followed by incubation in respective primary antibodies overnight at 4 °C. Coverslips were then washed 3x for 5 min in 1x PBS followed by incubation for 1 h at room temperature in blocking buffer containing secondary antibodies. […]
# as §1
# [3] = test system: RPE1 p53-/- FRT/TR SLX4 T1260A cells; assay: Proliferation (Incucyte), RPE1 p53-/- FRT/TR SLX4 T1260A cells
compound,measurement,setting,value
Cc1cccc(N(C)C(=O)[C@@H]2[C@H](O)CCN2c2nc(C)cc(C(F)(F)F)c2C#N)c1 [Polθi],"micronuclei formation, SLX4 Thr1260Ala cells",[1],"an even greater increase in micronuclei formation, indicating an additive effect"
same,γH2AX and 53BP1 foci formation,[2],further exacerbated
same,"proliferation, SLX4 Thr1260Ala knock-in cells","[3]; 5 µM ART558 with 400 nM aphidicolin, confluence normalised to day 0, three independent experiments",proliferation defects that were exacerbated
same,"proliferation, SLX4 Thr1260Ala cells with knockdown of BRCA1 or BRCA2","[3]; Polθ inhibition, siBRCA1 or siBRCA2",further exacerbated by Polθ inhibition
